Data reported in publication PMC4336329 (PLoS ONE, 2015).
About 14,000 (4.5%) of roughly 310,000 compounds showed an effect of 50% or more. Effects have a minus sign here. Some of the results follow.

Target: human ether-à-go-go-related gene (hERG) potassium channel (human, UniProt Q12809)
Assay: primary screen, population patch clamp on CHO cells stably expressing hERG
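Note: peak tail current of the secondary pulse compared with the same well before compound.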

Sequence of human ether-à-go-go-related gene (hERG) potassium channel (Q12809 whole entry, looked up): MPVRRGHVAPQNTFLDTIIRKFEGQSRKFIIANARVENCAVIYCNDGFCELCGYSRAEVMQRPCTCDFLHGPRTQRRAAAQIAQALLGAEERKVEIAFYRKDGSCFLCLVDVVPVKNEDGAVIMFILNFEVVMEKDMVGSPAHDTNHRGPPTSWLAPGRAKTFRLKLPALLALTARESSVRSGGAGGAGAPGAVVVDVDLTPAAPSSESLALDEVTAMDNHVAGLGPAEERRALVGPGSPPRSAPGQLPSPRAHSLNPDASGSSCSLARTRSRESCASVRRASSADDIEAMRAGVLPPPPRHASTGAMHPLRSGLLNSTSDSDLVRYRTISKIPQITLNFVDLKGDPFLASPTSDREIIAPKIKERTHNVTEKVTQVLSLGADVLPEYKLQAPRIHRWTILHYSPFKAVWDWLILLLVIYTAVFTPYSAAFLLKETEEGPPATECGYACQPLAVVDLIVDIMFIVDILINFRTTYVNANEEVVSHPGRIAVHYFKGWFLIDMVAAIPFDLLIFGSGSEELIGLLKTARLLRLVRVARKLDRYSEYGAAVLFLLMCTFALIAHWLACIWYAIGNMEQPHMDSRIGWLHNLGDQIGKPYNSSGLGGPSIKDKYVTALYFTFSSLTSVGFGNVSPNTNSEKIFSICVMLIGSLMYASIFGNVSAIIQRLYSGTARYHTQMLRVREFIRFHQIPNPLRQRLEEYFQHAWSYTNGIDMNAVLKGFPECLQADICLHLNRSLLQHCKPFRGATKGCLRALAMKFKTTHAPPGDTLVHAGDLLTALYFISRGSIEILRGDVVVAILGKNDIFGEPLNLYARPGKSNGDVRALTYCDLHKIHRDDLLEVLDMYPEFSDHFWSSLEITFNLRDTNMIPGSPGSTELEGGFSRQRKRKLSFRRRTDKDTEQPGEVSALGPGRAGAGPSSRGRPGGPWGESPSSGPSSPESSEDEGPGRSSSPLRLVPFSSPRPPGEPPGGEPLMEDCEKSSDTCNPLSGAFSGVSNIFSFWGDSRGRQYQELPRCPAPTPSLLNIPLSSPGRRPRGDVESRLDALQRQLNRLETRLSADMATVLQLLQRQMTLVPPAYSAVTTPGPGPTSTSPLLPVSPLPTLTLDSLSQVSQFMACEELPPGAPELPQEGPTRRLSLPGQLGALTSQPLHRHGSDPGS

Point of comparison: `CCCCCCc1c(O)nc(SCCN(C)C)[nH]c1=O`, “hERG current change (%, negative = inhibition) at 10uM” value 5.91%. Against it:
- C[C@H](NC(=O)[C@@H]1CCC(=O)N1Cc1ccco1)c1ccccc1 — higher, 9.86%
- CCCC[C@@H]1C[C@H]1[C@@H](NC(=O)c1cccs1)c1ccc(C(F)(F)F)cc1 — lower, -1.01%
- O=C(NCc1ccco1)C12CN(Cc3ccccc3)CC1C(c1cccc([N+](=O)[O-])c1)=NO2 (stereo not drawn) — lower, -46.6%
- O=[N+]([O-])c1cccc(S(=O)(=O)NCCCN2CCOCC2)c1 — lower, -4.75%
- COc1ccc(CCN2C(=O)CSC2=Nc2ccc(C(C)C)cc2)cc1OC — higher, 10.2%
- CC(Nc1cc(N2CCN(C(=O)C(C)(C)C)CC2)ccc1[N+](=O)[O-])c1ccccc1 (stereo not drawn) — lower, -10.1%
- COCCCN1C(=O)c2ccc(C(=O)Nc3ccc(OC)cc3OC)cc2C1=O — lower, -0.271%
- N#CCCCn1c(O)c(N=NC(=O)C(O)c2ccccc2)c2ccccc21 (stereo not drawn) — lower, -2.55%
- COc1ccc(C)cc1NC(=O)C(C)N1CCOCC1.Cl (stereo not drawn) — higher, 9.06%
- CC(=O)Nc1nc(Cn2nnc(-c3ccc4c(c3)OCO4)n2)nc(N(C)C)n1 — lower, -32.8%
- Cc1ccc(NC(=S)NC(=O)Cc2ccccc2)c(O)c1 — lower, 3.87%
- CCc1ccccc1N(CC(=O)O)S(C)(=O)=O — lower, 5.41%
- CCN1C(=O)[C@@H]2[C@@H](c3ccc(-c4ccc(OC)cc4)cc3)N3CCCC[C@@]3(C(=O)OC)[C@@H]2C1=O.O=C(O)C(F)(F)F — lower, -2.42%
- CN(C(=O)COc1ccc2c(-c3ccccc3)cc(=O)oc2c1)C1CCS(=O)(=O)C1 (stereo not drawn) — lower, -17.1%
- O=C(CSc1nc(=O)n(CCCN2CCOCC2)c2c1CCCC2)Nc1cccc([N+](=O)[O-])c1 — lower, -67.7%
- CCCc1nnc(NC(=O)Cn2c(=O)oc3cc(Br)ccc32)s1 — lower, -1.07%
- O=C(Nc1nc2ccccc2s1)c1ccc(OCC2CCCO2)cc1 (stereo not drawn) — lower, -5.77%
- COc1ccc(-c2c([C@H]3[C@@H]4C=CCC[C@@]4(C)C(=O)N3Cc3ccccc3)ccc3ccccc23)cc1OC — higher, 10.8%
- CCC(C)[C@H](NC(=O)C1(c2ccccc2)CCN(C(=O)OC(C)(C)C)CC1)C(=O)N[C@@H](C(=O)O)c1ccccc1 (stereo partly drawn) — higher, 8.38%
- O=C(CN1CCN(c2ccccc2O)CC1)Nc1ccc([N+](=O)[O-])cc1Br — lower, -6.3%
- CC(C)(C)NC(=O)C(Cc1ccccc1)NS(=O)(=O)c1ccc2c(c1)CCC(=O)N2 (stereo not drawn) — lower, -9.81%
- CCN(CC(=O)NC(C)(C)C)C(=O)c1ccc(Br)cc1 — lower, 2.64%
- CCOC(=O)C1CCCN(C(=O)N2CCOCC2)C1 (stereo not drawn) — higher, 8.84%
- Cc1cc(C(=O)NCc2ccco2)cs1 — higher, 7.33%
- Cc1cc(C)cc(NC(=S)N(Cc2ccc(Cl)cc2)Cc2ccc(C(=O)O)cc2)c1 — higher, 9.95%
- CC(C)CC(=O)N1CC(C)N(C(=O)CC(C)C)CC1C (stereo not drawn) — lower, -11%
- COc1ncnc(OC)c1S(=O)(=O)NCc1ccccc1 — higher, 16.8%
- CC(=O)n1cc([C@H]2C=C(C(=O)NCc3ccccc3)O[C@@H](OCCCCO)C2)c2ccccc21 — lower, -62%
- N#C/C(=C\c1ccc(-c2ccc([N+](=O)[O-])cc2Br)o1)C(=O)N1CCN(c2ccccc2)CC1 — higher, 19.8%
- O=S([O-])OC1CS(=O)(=O)CC1c1ccccc1.[Na+] (stereo not drawn) — higher, 17.1%
- COCCNC(=O)CSc1ccccc1C(=O)NC1CCCc2ccccc21 (stereo not drawn) — lower, 5.31%
- CN(C)S(=O)(=O)c1cccc(NC(=O)c2ccc(S(=O)(=O)N3CCCC3)cc2)c1 — lower, -14%
- CCCN(/C=N/c1sc2c(c1C#N)CCCCC2)CCC — lower, 3.91%
- COC(=O)C1=C(c2cccc(C#N)c2)C[C@@H]2CC[C@H]1N2C(=O)NCCc1ccccc1 — lower, -38.7%
- COC(=O)c1ccc(Oc2nc(N3CCCCC3)nc(N3CCOCC3)n2)cc1 — lower, -17.5%
- COc1ccccc1NS(=O)(=O)c1ccc(C)c(C(N)=O)c1 — lower, -7.71%
- S=c1[nH]nc(-c2ccco2)n1/N=C/c1ccccn1 — higher, 21%
- CCOC(=O)C1CCN(c2cc3c(cc2NC(=O)c2ccccc2Cl)n(C)c(=O)n3C)CC1 — lower, -48.8%
- Cc1ccc2nc(NC(=O)CCNS(=O)(=O)c3ccc(Br)s3)sc2c1 — lower, -8.41%
- N#Cc1nc(COc2ccc(F)cc2)oc1N1CCCCC1 — lower, -14.3%
- Cc1ccc(-c2nn(-c3ccc(F)cc3)cc2C(=O)N(C)CC(=O)Nc2ccc(N3CCOCC3)cc2)cc1 — higher, 6.37%
- CCCCN(CC)CCCNC(=O)c1cc2c(=O)[nH]c3ccccc3c2s1 — lower, -0.682%
- C/C=C/c1ccc(OCC(=O)N(C)CC(=O)Nc2ccc(F)cc2)c(OC)c1 — lower, -36.1%
- O=C(NCc1ccc2c(c1)OCO2)c1ccc2c(c1)C(=O)N(Cc1cccnc1)C2=O — lower, -5.14%
- S=C(NCc1cccnc1)Nc1ccc(Oc2ccc(Cl)cc2)cc1 — lower, -0.652%
- Nc1nc(SCC(=O)Nc2ccccc2)nc2nc3c(cc12)CCCC3 — lower, -1.5%
- CCSc1nc2sc3c(c2c(=O)n1-c1ccccc1)CCN(C)C3 — lower, 2.93%
- CCCNC(=O)c1ccc(SC)cc1OC — lower, -4.76%
- Cc1ccc(OCCCCn2ccnc2)c(Cl)c1 — lower, -35.3%
- CCOCc1nnc(NC(=O)COc2ccc3c(c2)OCO3)s1 — lower, 4.87%
- Cc1nnc(N)nc1C — higher, 10%
- Cc1cccc(C)c1NC(=O)CN(C)C(=O)c1ccccc1SCC(=O)N1CCCC1 — higher, 15.4%
- O=C(CN1CCN(c2ccc(F)cc2)CC1)N1CCOCC1 — higher, 12.9%
- CCC/C(O)=C1\C(=O)CC(c2ccccc2)CC1=NC (stereo not drawn) — lower, 2.11%
- C/C(=C\C(=O)c1ccc(Br)cc1)NNC(=O)c1ccccc1 — lower, 5.37%
- COC(=O)CC(c1ccc(C(C)C)cc1)n1cccc1 (stereo not drawn) — higher, 18.4%
- CC(C)Oc1ccc(Br)cc1C(=O)N/N=C/c1c[nH]c2ccccc12 — higher, 16.2%
- Cc1ccc(C)c(NC(=O)CSc2ccc(S(=O)(=O)N3CCCC3)cn2)c1 — lower, 1.52%
- CS(=O)(=O)N1CCN(CC(=O)NC2CCCCC2)CC1 — higher, 14.4%
- Cn1ccc(C(=O)N/N=C/c2c[nH]c3ccccc23)n1 — higher, 26.1%
- O=C(NCCCNC(=O)c1cnccn1)c1ccc(Cl)cc1 — lower, -1.98%
- O=C(NCc1ccncc1)NC12CC3CC(CC(C3)C1)C2 — lower, -0.56%
- Cc1[nH]c(=O)[nH]c(=O)c1S(=O)(=O)N1CCCc2ccccc21 — higher, 29.6%
- COC(=O)c1c(S(=O)(=O)N2CCOCC2)c(C)n(C)c1C — higher, 14.1%
- CC(=O)Nc1c(-c2ccccc2Cl)c(=O)c2ccccc2n1C — higher, 13%
- O=C(CN(CC1CCCO1)C(=O)CNS(=O)(=O)c1ccc(Cl)cc1)NCc1ccco1 (stereo not drawn) — higher, 7.35%
- COc1ccc(C(C)=O)cc1CSCc1cc(C(C)=O)ccc1OC — higher, 18.4%
- COc1cc(NC(=O)C2CCCN(S(=O)(=O)c3ccc4c(c3)oc(=O)n4C)C2)cc(OC)c1 (stereo not drawn) — lower, -1.72%
- O=C(CN1CCCCC1)NC(=O)NC1CCCCC1 — higher, 12.8%
- CCOc1ccc(OCCNC(=O)c2oc3ccccc3c2COC)cc1 — lower, -32.5%
- O=C(NC1CCCN(Cc2ccc(Cl)cc2)C1)c1cnc2ccccn2c1=O (stereo not drawn) — lower, -21.8%
- Cc1cc(C)nc(NC(=O)c2ccc(Cl)cc2)n1 — lower, 3.77%
- Cc1cc(C)c(C)c(S(=O)(=O)NCc2ccc(C(=O)N3CCN(C)CC3)cc2)c1C — lower, -4.7%
- C=CCn1c(CSc2nc3ccccc3s2)n[nH]c1=S — higher, 8.99%
- COc1ccc(/C=N/NC(=O)c2cccc(NC(=O)c3ccccc3)c2)c(C(=O)O)c1OC — higher, 6.8%
- O=C(CCC(=O)NC1CC1)Nc1nnc(C2CCCCC2)s1 — lower, 3.56%
- O=C(/C=C/c1ccco1)OCC(=O)c1ccc(OC(F)F)cc1 — lower, -12.5%
- O=c1ccn(CCOc2ccc(Cl)cc2)c(=O)[nH]1 — lower, -7.96%
- COc1ccc(C(=O)NCC(=O)OCc2ccc(Br)cc2)cc1 — lower, 0.553%
- O=C(N/N=C/c1ccc(-c2ccccc2C(=O)O)o1)c1cccs1 — higher, 14.4%
- CCC(c1nnnn1Cc1ccc(F)cc1)N1CCN(C)CC1 (stereo not drawn) — lower, -1.38%
- Cc1ccc(-c2nc(CSCC(=O)NCCN3CCN(Cc4ccccc4)CC3)c(C)o2)cc1 — lower, -65.2%
- O=C(Nc1ccccc1C(=O)NC(Cc1ccccc1)C(=O)O)c1ccco1 (stereo not drawn) — lower, 4.93%
- Cc1ccc2oc(-c3ccc(NC(=O)c4ccncc4)cc3O)nc2c1 — higher, 28.4%
- O=C(c1ccco1)N1CCN(Cc2cn[nH]c2-c2cccc3ccccc23)CC1 — lower, -29.1%
- O=C1c2ccccc2C(=O)N1CCOc1ccc(F)cc1 — lower, 4.45%
